Reference: article PMC12136788
Some of the results follow.

T1: UNK ZnF1-3 (human, UniProt Q9C0B0 31-174)
T1 sequence: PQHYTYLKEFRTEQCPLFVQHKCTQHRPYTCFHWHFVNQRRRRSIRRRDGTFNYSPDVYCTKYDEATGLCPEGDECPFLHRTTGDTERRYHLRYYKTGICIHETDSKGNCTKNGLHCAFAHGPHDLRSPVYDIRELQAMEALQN

B1: 71481417_71481537_3246_3pUTR_ENSMUSG00000031328_ENSMUST00000144429|mouse|control|control (ssRNA)
RNA: GGGAGUUCUACAGUCCGACGAUCCUAGGCACUCAAGCUGUGCUUCACAGGGGCCUUCCACUGUCAGGCCCAGGCCACCAGUGCCAGCACCCUUUGUAUCAAUGGUGAAGCGGGCAGGGGAGCCUGCAUUGCCCCCCUGUAGCCCAACAGAGGAUUGAGCAUCA
B2: chr2:238002776:238002777:+_ENSG00000198612_ENST00000392008|hu_mus|FALSE|FALSE (ssRNA)
RNA: GGGAGUUCUACAGUCCGACGAUCGAUGGAGGUAUAAGCUUGAGAGACCAGGGCAAAGGCGCGUCUCCUUGUUGCAUCUCUAAGGGCUUCCAUGAUUGGCUGCACAGUCUCUGACCACUGGUGGGCGUUGAUGGUUGUAUAGAUCAACAGAGGAUUGAGCAUCA
B3: chr9:7206979:7206980:+_ENSMUSG00000032002_ENSMUST00000034499|mus_hu|FALSE|FALSE (ssRNA)
RNA: GGGAGUUCUACAGUCCGACGAUCUUAAGGCCUUUGUCACAAAUCUGAAUCUUUAUUGUUCUGAAAUAAAUGUUAUAAACAUAACUCAAAACAAAAACUUCAAUAUUCAGUCUAAGAAGAGGUGUGGCUCAAUGCCCAUCACAUCAACAGAGGAUUGAGCAUCA
B4: chr7:75932113:75932114:+_ENSG00000106211_ENST00000248553|hu_hu|hu_hu_hu_mus_False|28_78 (ssRNA)
RNA: GGGAGUUCUACAGUCCGACGAUCCUGCGACCACUCAUCGGGCAACCGGGGCACCCCGAAGGCCUGGUCGAAGAGGCGGCUGUGUGCAGGGUACCAGUCCCGGAAUGCCCAGCUGGGCGGGCUCCGCAGCAGCGAGAAGGGCACCAACAGAGGAUUGAGCAUCA
B5: chr1:244855233:244855234:+_ENSG00000121644_ENST00000302550|hu_mus|hu_hu_hu_mus_True|48_48 (ssRNA)
RNA: GGGAGUUCUACAGUCCGACGAUCCAUCAGAUGGUAGGCGUUGCCCUUAUACUCUUUCCCCAGUUCUUCUACAAUUUUCUCUAUAUCAUCUUCUAGGAAGUCCGUACUUCCUAGAACAACAGCUUCUUUAAAUUUAAAUGUUUCCAACAGAGGAUUGAGCAUCA
B6: chr14:78183846:78183847:+_ENSG00000119705_ENST00000557342|hu_hu|hu_hu_hu_mus_False|58_88 (ssRNA)
RNA: GGGAGUUCUACAGUCCGACGAUCUCUCAGAAAUCUUUCUUCAUCAGCAUCAUCAGAUCCGUGCAAAGCCUUUGCUCUUCUAGUGUGAACGUGGAUCUAUGGGAGGGAAAGCACUGUCAGAAAAGGUAAUUUUUUUUUUAAAGACAACAGAGGAUUGAGCAUCA
B7: chr17:46298169:46298170:+_ENSMUSG00000023952_ENSMUST00000024748|mus_mus|motif|central (ssRNA)
RNA: GGGAGUUCUACAGUCCGACGAUCUUUACCUCCUCUGUUCCUUCCGUUCUUCUUCUUCCCCUUUGGGCCCCCGCAACUGCUGCGGCCGCCGGCCCCCCGAGCUUUGAGGUUUCCACCCAUGGCCGGGCCUCCUCCGGGCCGGCACAACAGAGGAUUGAGCAUCA
B8: chr17:55757426:55757427:+_ENSG00000153944_ENST00000284073|hu_mus|motif|central (ssRNA)
RNA: GGGAGUUCUACAGUCCGACGAUCAUAGAGUCUAUGCCCACCUCCCGCUCCGCGUAUCACAACUUCGAUUCAGUGUGUGCGGAAGUCCCAGAUGAAAAGUCUUACAGUCUCAGAACUGGUACCAAAAAUGGAGAGUAACAUCACCAACAGAGGAUUGAGCAUCA
B9: chr9:26842284:26842285:-_ENSG00000120159_ENST00000333916|hu_mus|FALSE|FALSE (ssRNA)
RNA: GGGAGUUCUACAGUCCGACGAUCAUACAAAAUUAUAUGACAUGGCUUCAUUCAAACACACAUAAUAUUCAAGUCAGAAAACUACACUGGCUUUUUUAUAUCACCAGCUUUCAUGAGAGCCUUAAUUGCUCUUGCCCUCAUUUCCAACAGAGGAUUGAGCAUCA
B10: chr5:28742860:28742861:+_ENSMUSG00000048271_ENSMUST00000114884|mus_hu|FALSE|FALSE (ssRNA)
RNA: GGGAGUUCUACAGUCCGACGAUCCCCCUCAAAAUUUGUCUGGAAAAAUGAUGAGAUUUACUCUUUAGAAGAAUAUCAGUAUAAGGAUUUAACAAACGUGGCCAGACCAGUGGUAAUGCAAGGUUAUCUAAAGUAGCUAAGUGACAACAGAGGAUUGAGCAUCA
B11: chr11:46405157:46405158:+_ENSG00000110492_ENST00000395566|hu_hu|hu_hu_hu_mus_False|48_108 (ssRNA)
RNA: GGGAGUUCUACAGUCCGACGAUCCCCUUAGGGGUGGGGGCACUUGGUGUGGGCGUGAGAGGACAGGCGUGAUUGACAGAGCUGACAAGCAGACAGAAGGCACUGGUGGGUUAUAUCUUGGGCCUGUGGGAGAGGAGGGCUCCGCAACAGAGGAUUGAGCAUCA
B12: 21628483_21628693_1543_CDS_ENSG00000004700_ENST00000444129|human|control|control (ssRNA)
RNA: GGGAGUUCUACAGUCCGACGAUCAAUUCCCAUACCAAAUGCAACAGUUGCCACUACUACCUGAAUUUCAUUGGCUGACCAUUUUCUAUGAACUGUGGUCUUAUCUUCUGGCUCCAAAUUGGCAUGGUAAGCACCUGCAUGAAUCAACAGAGGAUUGAGCAUCA
B13: chr15:52350861:52350862:+_ENSG00000069956_ENST00000261845|hu_hu|motif|central (ssRNA)
RNA: GGGAGUUCUACAGUCCGACGAUCUGGAAUUACGCUGAGAAGCUCCUGACGAUCUUCCUCAUGUACAACAGGAAUAGAUUCGGAAAUCAGCUGCAUCUGUUCAAGUUCAUGUGCACCUGCAAAAAGGGUUUUACCAGUCAGCAUCAACAGAGGAUUGAGCAUCA
B14: chr22:32879901:32879902:+_ENSG00000100225_ENST00000397426|hu_mus|hu_hu_hu_mus_False|1_8 (ssRNA)
RNA: GGGAGUUCUACAGUCCGACGAUCCUCUUCCAUACUCAUGGCAUCCUGAAUUGACUCAGCUUCAACAUUUUGACUAGGCCCUUCCAUACUGUCAUCAGUCCAGGCAUCAAAUGGGGUGGCCUGUCCUUGGAAUGAAUCACUUGGCAACAGAGGAUUGAGCAUCA
B15: chr10:70097624:70097625:+_ENSG00000096746_ENST00000354695|hu_hu|motif|central (ssRNA)
RNA: GGGAGUUCUACAGUCCGACGAUCGUCCAUCGUCAAUGUUAUCCCAUUUGGCACGAUUUCCAACCCUUGAAAGAACUGAACGGUUUCCUCUUUGCUGCAACCAAAUGGUAGUCCACGAAGUCGUACUGUCCCAUCACUAGCGUCCAACAGAGGAUUGAGCAUCA
B16: chr2:32640116:32640117:+_ENSG00000115760_ENST00000421745|hu_hu|motif|central (ssRNA)
RNA: GGGAGUUCUACAGUCCGACGAUCUUCUGAUAUACUUUCACCCUGAGUUCUGCUUAAACCAUCCAGUGACCUGUGAGAAUUACGGCGGAUGGGUGAGGUAGCAGGAGAUUUAUAUGUUAAUAAACCUCCAGCUAAUAAACAUGGCAACAGAGGAUUGAGCAUCA
B17: chr8:26933331:26933332:-_ENSMUSG00000031575_ENSMUST00000166078|mus_hu|FALSE|FALSE (ssRNA)
RNA: GGGAGUUCUACAGUCCGACGAUCCUGGUGGAACUUGGUUCCCUUUUUGCUCCGCCAAGAAUAGCUAAAUUUAUCAUAACCUAAAGGAGCUUGAAGGUUUCCUAGGGGCUGGGACCAACCCAGUCUGGCAGCGGUAUCUGGUGGCAACAGAGGAUUGAGCAUCA
B18: chr3:152055631:152055632:+_ENSMUSG00000025437_ENSMUST00000117492|mus_mus|motif|central (ssRNA)
RNA: GGGAGUUCUACAGUCCGACGAUCCCAGUUAUGAUUGGUUAGAGUAAUAAGAACAUUAUCGAAGCCAAAGUAUUUACAGUGCGGCAAAGGGUUUGCUGGAUCUGCCUGUAGAACAAAGGUCAGAGAACCUAGUUACCAACUGUCCAACAGAGGAUUGAGCAUCA
B19: chr2:69661947:69661948:+_ENSMUSG00000042155_ENSMUST00000053087|mus_hu|FALSE|FALSE (ssRNA)
RNA: GGGAGUUCUACAGUCCGACGAUCGGCUCGGUGACAAUGGAAAAUUAUGCCUGAAGGACACUGAAGAGUAAUAUCAGUAAAUAAUCCAUCCAAGUAAAAUGUUCUGAAUGCAUCCAGAAAAUCCACUGGAUGUGUUGAAUCCUUCAACAGAGGAUUGAGCAUCA
B20: 76046523_76046643_2167_CDS_ENSG00000078687_ENST00000588847|human|control|control (ssRNA)
RNA: GGGAGUUCUACAGUCCGACGAUCACUGUUCAUGAUGGACCCAUCGUUCUUCCCCCCUGAGUUUGAAGCCUGAGUAGCUGCACAACCCCAGGCCUCUGUCCCAUUGUCAUUUUUCCUUUCAGACCUAGGGGAUUCUUCAAAUUCCAACAGAGGAUUGAGCAUCA
B21: chr7:65705475:65705476:+_ENSG00000169902_ENST00000304842|hu_hu|hu_hu_hu_mus_True|18_18 (ssRNA)
RNA: GGGAGUUCUACAGUCCGACGAUCUCUAUUCGGUGAUGGCACUCCAUGGCAUGCUGGCCCAGGUAAAACACGGUCACAGAACUAAUCACCAGACACGCCAAGAGUAAGUUCUGCUUCAGCUUUCCAACCAUCUUGAUGUGGUUACAACAGAGGAUUGAGCAUCA
B22: chr7:141450121:141450122:+_ENSG00000106028_ENST00000265304|hu_mus|hu_hu_hu_mus_True|68_108 (ssRNA)
RNA: GGGAGUUCUACAGUCCGACGAUCUCAUCCUUUCUACGCCUUUUCUUUUGUCUGGUCACUCAGAAAUAUAAUAUUAUCAGCUAUGAUUGUUGUUGCUUGCCGCCUCACAUUGUUUUUAUCCAUGUACUCGCCAUAGUCCACUUUCAACAGAGGAUUGAGCAUCA

Target: T1, UNK ZnF1-3
Test: nsRBNS (natural sequence RNA bind-n-seq); RBNS binding buffer (assumed for nsRBNS): 25 mM Tris pH 7.5, 150 mM KCl, 3 mM MgCl2, 0.01% Triton X-100, 500 ug/ml BSA, 20 U/ml SUPERase-In, 4 C; UNK is unkempt and MSI1 is Musashi-1; names of the RNAs are library labels; protein concentration not given here; high values mean tight binding

| Binder | binding signal [enrichment R] |
| --- | --- |
| B1 | 0.711 |
| B2 | 1.37 |
| B3 | 0.771 |
| B4 | 0.364 |
| B5 | 1.33 |
| B6 | 1.76 |
| B7 | 0.655 |
| B8 | 1.54 |
| B9 | 0.855 |
| B10 | 1.33 |
| B11 | 2.78 |
| B12 | 0.813 |
| B13 | 0.846 |
| B14 | 1.01 |
| B15 | 0.629 |
| B16 | 0.773 |
| B17 | 0.976 |
| B18 | 0.813 |
| B19 | 1.04 |
| B20 | 0.627 |
| B21 | 0.559 |
| B22 | 0.463 |
